From US20220402862A1 (Intellia Therapeutics, Inc., priority 2019, published 2022)
At least one read-out could not be matched to a standard name with certainty.

What follows are compounds tested on mouse TTR gene (assay: In vivo editing in mouse liver, sgRNA targeting TTR (G282 or G502), % indel by NGS). Details: guide G282 (mouse TTR gene), LNP 50/9/38/3 amine lipid/DSPC/cholesterol/PEG-2k-DMG, N/P about 6, NGS, experiments 1-10, 16-20.
Set-up: species or system CD-1 female mice
Method: CD-1 female mice ranging from 6-10 weeks of age were used in each study. Animals were weighed and grouped according to body weight for preparing dosing solutions based on group average weight. LNPs were dosed via the lateral tail vein in a volume of 0.2 mL per animal (approximately 10 mL per kilogram body weight). The animals were periodically observed for adverse effects for at least 24 hours post dose. For studies measuring in vivo editing in liver, CD-1 female mice were dosed at 0.1 mg/kg unless otherwise noted. Animals were euthanized at 6 or 7 days by ex sanguination via cardiac puncture under isoflurane anesthesia. Liver tissue was collected from each animal for DNA extraction and analysis. Blood was collected into serum separator tubes or into tubes containing buffered sodium citrate for plasma as described herein. Cohorts of mice were measured for editing by Next-Generation Sequencing (NGS).
In brief, to quantitatively determine the efficiency of editing at the target location in the genome, genomic DNA was isolated and deep sequencing was utilized to identify the presence of insertions and deletions introduced by gene editing.
PCR primers were designed around the target site (e.g., within B2M), and the genomic area of interest was amplified. Additional PCR was performed according to the manufacturer's protocols (Illumina) to add the necessary chemistry for sequencing. The amplicons were sequenced on an Illumina MiSeq instrument. The reads were aligned to the mouse or rat reference genome (e.g., GRCm38) after eliminating those having low quality scores. The resulting files containing the reads were mapped to the reference genome (BAM files), where reads that overlapped the target region of interest were selected and the number of wild type reads versus the number of reads which contain an insertion, substitution, or deletion was calculated.
The editing percentage (e.g., the “indel efficiency” or “percent indels”) was defined as the total number of sequence reads with insertions or deletions over the total number of sequence reads, including wild type.
We assessed in vivo editing efficiency for materials delivered with formulations including various amine lipid compounds. Editing was measured using either G282 (SEQ ID No: 1) which targets the mouse TTR gene or G650 (SEQ ID No. 2) which targets the mouse B2M gene. Lipids described above were assessed for efficacy through in vivo editing experiments. LNPs were formulated at a 1:1 or 1:1.3 w/w ratio of sgRNA to Cas9 mRNA, and at an N/P ratio of about 6. Molar concentrations of lipids in the lipid component of the LNPs are used at mol % amine lipid/DSPC/cholesterol/PEG-2k-DMG of 50/9/38/3. The final LNPs were characterized to determine the encapsulation efficiency, polydispersity index, and average particle size according to the analytical methods provided above. Analysis of average particle size, polydispersity (PDI), total RNA content and encapsulation efficiency of RNA are shown in Table 2.
To assess whether the editing was dose responsive, experiments were performed in vivo at various LNP dose levels. Cas9 mRNA of Example 120 was formulated as LNPs with an sgRNA targeting TTR (G282, SEQ ID NO: 1; or G502, SEQ ID NO: 4).
We assessed in vivo delivery by measuring editing efficiency for materials delivered with formulations that included various amine lipid compounds. Cas9 mRNA (SEQ ID NO: 6) was formulated as LNPs with an sgRNA targetting the TTR mouse gene (SEQ ID NO: 4). LNPs were formulated at a 1:2 w/w ratio of sgRNA to Cas9 mRNA, and at an N/P ratio of about 6. Molar concentrations of lipids in the lipid component of the LNPs are used at mol % amine lipid/DSPC/cholesterol/PEG-2k-DMG of 50/9/38/3. The final LNPs compositions were characterized and analyzed as described in Example 120. Analysis of average particle size, polydispersity (PDI), total RNA content and encapsulation efficiency of RNA are shown in Table 6.

Point of comparison: `CCCCC/C=C\C/C=C\CCCCCCCC(=O)OCC(COC(=O)CCC(OCCCCCCCC)OCCCCCCCC)COC(=O)NCCN(CC)CC` (centres unmarked) [Compound 12, 3-((4,4-bis(octyloxy)butanoyl)oxy)-2-((((2-(diethylamino)ethyl)carbamoyl)oxy)methyl)propyl (9Z,12Z)-octadeca-9,12-dienoate], “Editing Mean % Indel” value 20.3%. Against it:
- CCCCC/C=C\C/C=C\CCCCCCCC(=O)OCC(COC(=O)CCC(OCCCCCCCC)OCCCCCCCC)COC(=O)OCCCN(C)C (centres unmarked) [Compound 2, 3-((4,4-bis(octyloxy)butanoyl)oxy)-2-((((3-(dimethylamino)propoxy)carbonyl)oxy)methyl)propyl (9Z,12Z)-octadeca-9,12-dienoate] — lower, 6.3%
- CCCCC/C=C\C/C=C\CCCCCCCC(=O)OCC(COC(=O)CCC(OCCCCCCCC)OCCCCCCCC)COC(=O)OCCCN1CCCC1 (centres unmarked) [Compound 3, 3-((4,4-bis(octyloxy)butanoyl)oxy)-2-((((3-(pyrrolidin-1-yl)propoxy)carbonyl)oxy)methyl)propyl (9Z,12Z)-octadeca-9,12-dienoate] — lower, 8.8%
- CCCCC/C=C\C/C=C\CCCCCCCC(=O)OCC(COC(=O)CCC(OCCCCCCCC)OCCCCCCCC)COC(=O)OCCCN(C)CCN(C)C (centres unmarked) [Compound 4, 13-(((4,4-bis(octyloxy)butanoyl)oxy)methyl)-2,5-dimethyl-10-oxo-9,11-dioxa-2,5-diazatetradecan-14-yl (9Z,12Z)-octadeca-9,12-dienoate] — lower, 0.1%
- CCCCC/C=C\C/C=C\CCCCCCCC(=O)OCC(COC(=O)CCC(OCCCCCCCC)OCCCCCCCC)COC(=O)OCC1CCCN(CC)C1 (centres unmarked) [Compound 5, 3-((4,4-bis(octyloxy)butanoyl)oxy)-2-(((((1-ethylpiperidin-3-yl)methoxy)carbonyl)oxy)methyl)propyl (9Z,12Z)-octadeca-9,12-dienoate] — lower, 7.0%
- CCCCC/C=C\C/C=C\CCCCCCCC(=O)OCC(COC(=O)CCC(OCCCCCCCC)OCCCCCCCC)COC(=O)NCCCN(C)C (centres unmarked) [Compound 6, 3-((4,4-bis(octyloxy)butanoyl)oxy)-2-((((3-(dimethylamino)propyl)carbamoyl)oxy)methyl)propyl (9Z,12Z)-octadeca-9,12-dienoate] — lower, 0.1%
- CCCCC/C=C\C/C=C\CCCCCCCC(=O)OCC(COC(=O)CCC(OCCCCCCCC)OCCCCCCCC)COC(=O)NCCCN(CC)CC (centres unmarked) [Compound 7, 3-((4,4-bis(octyloxy)butanoyl)oxy)-2-((((3-(diethylamino)propyl)carbamoyl)oxy)methyl)propyl (9Z,12Z)-octadeca-9,12-dienoate] — lower, 0.2%
- CCCCC/C=C\C/C=C\CCCCCCCC(=O)OCC(COC(=O)CCC(OCCCCCCCC)OCCCCCCCC)COC(=O)NCCCN1CCCC1 (centres unmarked) [Compound 8, 3-((4,4-bis(octyloxy)butanoyl)oxy)-2-((((3-(pyrrolidin-1-yl)propyl)carbamoyl)oxy)methyl)propyl (9Z,12Z)-octadeca-9,12-dienoate] — lower, 0.1%
- CCCCC/C=C\C/C=C\CCCCCCCC(=O)OCC(COC(=O)CCC(OCCCCCCCC)OCCCCCCCC)COC(=O)OCCN(CC)CC (centres unmarked) [Compound 9, 3-((4,4-bis(octyloxy)butanoyl)oxy)-2-((((2-(diethylamino)ethoxy)carbonyl)oxy)methyl)propyl (9Z,12Z)-octadeca-9,12-dienoate] — lower, 0.1%
- CCCCC/C=C\C/C=C\CCCCCCCC(=O)OCC(COC(=O)CCC(OCCCCCCCC)OCCCCCCCC)COC(=O)OCCN1CCCC1 (centres unmarked) [Compound 10, 3-((4,4-bis(octyloxy)butanoyl)oxy)-2-((((2-(pyrrolidin-1-yl)ethoxy)carbonyl)oxy)methyl)propyl (9Z,12Z)-octadeca-9,12-dienoate] — lower, 0.5%
- CCCCC/C=C\C/C=C\CCCCCCCC(=O)OCC(COC(=O)CCC(OCCCCCCCC)OCCCCCCCC)COC(=O)OCCCCN(CC)CC (centres unmarked) [Compound 11, 3-((4,4-bis(octyloxy)butanoyl)oxy)-2-((((4-(diethylamino)butoxy)carbonyl)oxy)methyl)propyl (9Z,12Z)-octadeca-9,12-dienoate] — lower, 16.8%
- CCCCC/C=C\C/C=C\CCCCCCCC(=O)OCC(COC(=O)CCC(OCCCCCCCC)OCCCCCCCC)COC(=O)OCCCCN1CCCC1 (centres unmarked) [Compound 13, 3-((4,4-bis(octyloxy)butanoyl)oxy)-2-((((4-(pyrrolidin-1-yl)butoxy)carbonyl)oxy)methyl)propyl (9Z,12Z)-octadeca-9,12-dienoate] — lower, 12.0%
- CCCCC/C=C\C/C=C\CCCCCCCC(=O)OCC(COC(=O)CCC(OCCCCCCCC)OCCCCCCCC)COC(=O)OCC1CCCN1C (centres unmarked) [Compound 14, 3-((4,4-bis(octyloxy)butanoyl)oxy)-2-(((((1-methylpyrrolidin-2-yl)methoxy)carbonyl)oxy)methyl)propyl (9Z,12Z)-octadeca-9,12-dienoate] — lower, 0.2%
- CCCCC/C=C\C/C=C\CCCCCCCC(=O)OCC(COC(=O)CCC(OCCCCCCCC)OCCCCCCCC)COC(=O)OC1CCN(CC)CC1 (centres unmarked) [Compound 17, 3-((4,4-bis(octyloxy)butanoyl)oxy)-2-(((((1-ethylpiperidin-4-yl)oxy)carbonyl)oxy)methyl)propyl (9Z,12Z)-octadeca-9,12-dienoate] — lower, 12.0%
- CCCCC/C=C\C/C=C\CCCCCCCC(=O)OCC(COC(=O)CCC(OCCCCCCCC)OCCCCCCCC)COC(=O)OCCN(C)C (centres unmarked) [Compound 18, 3-((4,4-bis(octyloxy)butanoyl)oxy)-2-((((2-(dimethylamino)ethoxy)carbonyl)oxy)methyl)propyl (9Z,12Z)-octadeca-9,12-dienoate] — lower, 2.1%
- CCCCC/C=C\C/C=C\CCCCCCCC(=O)OCC(COC(=O)CCC(OCCCCCCCC)OCCCCCCCC)COC(=O)OCCCN(C)CC (centres unmarked) [Compound 20, 3-((4,4-bis(octyloxy)butanoyl)oxy)-2-((((3-(ethyl(methyl)amino)propoxy)carbonyl)oxy)methyl)propyl (9Z,12Z)-octadeca-9,12-dienoate] — higher, 24.5%
- CCCCC/C=C\C/C=C\CCCCCCCC(=O)OCC(COC(=O)CCC(OCCCCCCCC)OCCCCCCCC)COC(=O)OCCCN(C(C)C)C(C)C (centres unmarked) [Compound 21, 3-((4,4-bis(octyloxy)butanoyl)oxy)-2-((((3-(diisopropylamino)propoxy)carbonyl)oxy)methyl)propyl (9Z,12Z)-octadeca-9,12-dienoate] — lower, 0.8%
- CCCCC/C=C\C/C=C\CCCCCCCC(=O)OCC(COC(=O)CCC(OCCCCCCCC)OCCCCCCCC)COC(=O)OCCC(C)N(C)C (centres unmarked) [Compound 22, 3-((4,4-bis(octyloxy)butanoyl)oxy)-2-((((3-(dimethylamino)butoxy)carbonyl)oxy)methyl)propyl (9Z,12Z)-octadeca-9,12-dienoate] — lower, 11.5%
- CCCCC/C=C\C/C=C\CCCCCCCC(=O)OCC(COC(=O)CCC(OCCCCCCCC)OCCCCCCCC)COC(=O)OCCCN1CCCCCC1 (centres unmarked) [Compound 23, 3-(((3-(azepan-1-yl)propoxy)carbonyl)oxy)-2-(((4,4-bis(octyloxy)butanoyl)oxy)methyl)propyl (9Z,12Z)-octadeca-9,12-dienoate] — lower, 8.6%
- CCCCC/C=C\C/C=C\CCCCCCCC(=O)OCC(COC(=O)CCCCN(C)C)COC(=O)CCC(OCCCCCCCC)OCCCCCCCC (centres unmarked) [Compound 25] — lower, 3.9%
